In publication PMC10726135:
The other results are listed elsewhere or left out. At the low end of the ranking the order means little. Measured with an extract: partners may take part in the binding.

The sequences below were run against T1, HNF4alpha2 (COS-7 nuclear extract) (UniProt P41235) (assay: protein-binding microarray). Conditions: COS-7 nuclear extract on double-stranded Agilent 4x180k PBM; binding buffer, salt, pH and temperature not given; high values mean tight binding; double strand, one strand shown; sequences stand for … in …GCCTAGGGAGATTAGAGTATCGGTCGA.
T1 sequence: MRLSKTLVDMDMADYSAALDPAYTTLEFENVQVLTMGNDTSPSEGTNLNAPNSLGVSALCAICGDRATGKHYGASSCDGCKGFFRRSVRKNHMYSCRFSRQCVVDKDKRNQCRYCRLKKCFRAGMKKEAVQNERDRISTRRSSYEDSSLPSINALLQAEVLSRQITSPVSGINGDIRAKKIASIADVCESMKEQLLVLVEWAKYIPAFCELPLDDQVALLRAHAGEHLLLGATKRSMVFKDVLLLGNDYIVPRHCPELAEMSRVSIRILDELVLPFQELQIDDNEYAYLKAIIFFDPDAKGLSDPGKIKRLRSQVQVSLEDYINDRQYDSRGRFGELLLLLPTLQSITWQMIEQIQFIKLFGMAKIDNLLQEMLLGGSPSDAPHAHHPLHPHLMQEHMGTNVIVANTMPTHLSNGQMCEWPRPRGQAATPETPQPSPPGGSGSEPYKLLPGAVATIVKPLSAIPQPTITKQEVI

Row | Sequence | binding signal (log2 normalized intensity)
1 | TTAGAGAGAGAAATTGCTTAAGTGCTTGTC | -0.00985
2 | GTTGCTTCCACCTATGAGTCTGTAAAGTCA | 0.468
3 | GCAATTCCCCTGGGCCCACGGCTCTGCACA | -1.23
4 | CTTTACATTTATTAGAACCTTATGTGAGTA | 1.53
5 | CCCAAACTTAAAAGAAGCTACTAGCAAATC | -1.11
6 | TAAAGCGGACGGGCTGCGGAGGCGACTGCA | -0.854
7 | TCTTATGTCCCTCCTGACCTTTGGACTTGA | 10.3
8 | ATTTTATGCTTACTGCCTCAGGGAGGAGTT | -1.17
9 | GCAGTAACGGCAGGGTTGTGCAGGACTGCG | -1.26
10 | GGTTAAAATTTATCTATTGGGTACAATGTT | 2.06
11 | AAATCTTAAGGAGGAGTGCTAGAGAAAGGA | -1.1
12 | CAGGGACCTTTGTTCCTTTACACATGAGAG | 2.21
13 | GAGGAAAAGGAGGAGTTTGACCCCAGGTAG | 4.41
14 | AGGAGCCAATTATGCTGGCAGTAGGGAGGT | -0.989
15 | GACGCAGAGAAGCACTGCAGTTTAAGTCTG | -1.18
16 | ACTTGAGGTATGATGCATCCTGAGGCAAAA | -0.917
17 | GGAAATGATAGCATCCCAGTAGAAAAAAAA | -1.13
18 | AGTCCCATAACTGACTGTGTCTGTTTACCC | 0.97
19 | ACTGATAGGTGCGTGGGGGAGGGGCCAGGA | -1.13
20 | TTCTTAGGGAGATGGATATATGTACAGCTG | 0.153
21 | GTTTTTTTCACCTGGGGCCTTGGGCCACCT | -1.13
22 | TTTCTCTTTTGACCTTTGGACTTTCACATT | 10.5
23 | ACAAAGAAATGTAACCTTTGGCCAATTGCA | 4.29
24 | GCAATTGGTCAAAGGTCACCAGTGAGCCAA | 4.99

Row | Sequence | binding signal (log2 normalized intensity)
25 | CAGATGGAATGTGTGCCCGTCACCTCTGAA | -0.532
26 | TCCTTCCTCAAGACCCTTTACTGCCATCTG | 0.877
27 | CCTTTTTTGAAGGTTAAAGTCCATTTTTGA | 6.53
28 | GGGAGGGTGGGTTATCAGTAAGAGCATCAG | 0.55
29 | AAAGAGACAAAGCTTTGAAGATGCTTTTTG | -1.18
30 | ATTCCTTCCCAAGTGCTAGCTTGGTCTGAA | -0.145
31 | AGCTGCTTCGGCCAGCACAGGAGGCCTCTC | -1.11
32 | ACATGTACAGTATTGCGTAAGTTGTTCCTT | 1.68
33 | AAACTGCAGCTGCTGCACTGATAAGAAAGC | -1.17
34 | CTGACCCCAGCATGTTTGGGTCACAATCAC | 2.09
35 | GTCTTCCTGGTGACCTTTGTTTGGTCAAAT | 4.06
36 | TTTCACCTCTGCACCCCACCAAGGACTGGA | 2.54
37 | GTAGATAAGCAGATCTGGGCAATGTCAACA | -0.929
38 | CACTGCTTTGTTCCCTGGCTCACTGACTCA | -0.952
39 | CAATTAGAGCAAAGGTTACTGCAGAGAAGA | 1.54
40 | CCAGAACGTGGCCTTTAATCAACTGCAGGA | -0.991
41 | TAACTCAAAATCTGCTCTGTCCTGAGATGT | 1.06
42 | GAACTGAGCAGGCCTGGGCTTGCAAAGGTC | 2.63
43 | TGTACAAAGGTCACTTCTGTTCATTGATAA | 3.92
44 | CTGAAACATGCCTATGACCGAGGGTTAAGC | -0.865
45 | AGGATCACCTGAGTCCAGAGGTCAAGGCTG | 3.8
46 | TCCAAAGAGCTCAACCTGTGAAAATTGGTA | -1.33
47 | CCATTACTTCTGTTTGCATTAGTTATATCT | 1.4
48 | AATCCCAGGGTCAGAGGTCGCGAGGGAGAG | 3.24

Row | Sequence | binding signal (log2 normalized intensity)
49 | AGGCCAGGCATACCTTTCTTATCATAAGTA | -0.983
50 | AACGGCAGGGTTGTGCAGGACTGCGTAACT | -1.13
51 | GGGAAAACTTACGCACATTACTTTGATTGG | 0.391
52 | CCTCCCACCCCCACGGTGCGCTGCCCCTCA | 5.24
53 | AAGGTCTTAAGTGTCATTAGTAACAAACAC | 1.05
54 | ATGAATGCCTTGGCCTCTGCAGACATGGAC | 1.26
55 | GCAGAGCAGGTTCTCAGGCCAATCATATCT | -1.06
56 | CCTTACCATTGCTTTCTTCCAAGGCTGCAA | -0.862
57 | GGCCGCCCAAGCGAATATGTCAGGCTCAGG | -0.889
58 | GAGCAGGAACCTTGTGGTGGTGAAAGTCAA | 0.207
59 | TCCAGGAATGGAAACCCCTGTAAGTCCAAA | 2.69
60 | GGAGAGGATGGGGACAAAGGTCAAGAAAGC | 5.86
61 | AAATCCAAAGGTCAACAGCCAGCCTCAAAG | 3.6
62 | TCTGGTGGCACACAGAGGACGTCAGGCAGA | -0.214
63 | CTTACTCTCTCCCTCCTCCTTTTTTTCCCC | 2.98
64 | AGTCCAAAATCAGTCTCAGTGGGCTAAACA | -0.564
65 | AGAATTGGTCCTGGAACTCAAAGGTCAAAT | 5.03
66 | GTTCTCCTTTCTGCCCTTTGAAGCATGTGA | 3.07
67 | CCGTGGCTGGAACTCCTCCGGTCAAGATCA | -1.18
68 | GGCAGTGACTGGACCACGATCAGCCAGCAG | -1.11
69 | TAGAACCCAGGCACAGGTCCTACTCACACT | -1.15
70 | GACTCTTGGACTCCCTGAAGAAACAGTCTT | 0.399
71 | TCAGGGGTCAATGTGCACATTCGAAGTTTT | 4.11
72 | CACGTGCAAAGTACAAAGTACAGAGATGGC | 3.27
